Results from article PMC4336329 (PLoS ONE, 2015).
The whole screen tested about 310,000 compounds, of which about 2,200 (0.71%) showed an effect of 50% or more. Effects have a minus sign here. Some of the results follow.

Target: human ether-à-go-go-related gene (hERG) potassium channel (human, UniProt Q12809)
Assay: primary screen, population patch clamp on CHO cells stably expressing hERG

Chain of human ether-à-go-go-related gene (hERG) potassium channel (Q12809 whole entry, looked up): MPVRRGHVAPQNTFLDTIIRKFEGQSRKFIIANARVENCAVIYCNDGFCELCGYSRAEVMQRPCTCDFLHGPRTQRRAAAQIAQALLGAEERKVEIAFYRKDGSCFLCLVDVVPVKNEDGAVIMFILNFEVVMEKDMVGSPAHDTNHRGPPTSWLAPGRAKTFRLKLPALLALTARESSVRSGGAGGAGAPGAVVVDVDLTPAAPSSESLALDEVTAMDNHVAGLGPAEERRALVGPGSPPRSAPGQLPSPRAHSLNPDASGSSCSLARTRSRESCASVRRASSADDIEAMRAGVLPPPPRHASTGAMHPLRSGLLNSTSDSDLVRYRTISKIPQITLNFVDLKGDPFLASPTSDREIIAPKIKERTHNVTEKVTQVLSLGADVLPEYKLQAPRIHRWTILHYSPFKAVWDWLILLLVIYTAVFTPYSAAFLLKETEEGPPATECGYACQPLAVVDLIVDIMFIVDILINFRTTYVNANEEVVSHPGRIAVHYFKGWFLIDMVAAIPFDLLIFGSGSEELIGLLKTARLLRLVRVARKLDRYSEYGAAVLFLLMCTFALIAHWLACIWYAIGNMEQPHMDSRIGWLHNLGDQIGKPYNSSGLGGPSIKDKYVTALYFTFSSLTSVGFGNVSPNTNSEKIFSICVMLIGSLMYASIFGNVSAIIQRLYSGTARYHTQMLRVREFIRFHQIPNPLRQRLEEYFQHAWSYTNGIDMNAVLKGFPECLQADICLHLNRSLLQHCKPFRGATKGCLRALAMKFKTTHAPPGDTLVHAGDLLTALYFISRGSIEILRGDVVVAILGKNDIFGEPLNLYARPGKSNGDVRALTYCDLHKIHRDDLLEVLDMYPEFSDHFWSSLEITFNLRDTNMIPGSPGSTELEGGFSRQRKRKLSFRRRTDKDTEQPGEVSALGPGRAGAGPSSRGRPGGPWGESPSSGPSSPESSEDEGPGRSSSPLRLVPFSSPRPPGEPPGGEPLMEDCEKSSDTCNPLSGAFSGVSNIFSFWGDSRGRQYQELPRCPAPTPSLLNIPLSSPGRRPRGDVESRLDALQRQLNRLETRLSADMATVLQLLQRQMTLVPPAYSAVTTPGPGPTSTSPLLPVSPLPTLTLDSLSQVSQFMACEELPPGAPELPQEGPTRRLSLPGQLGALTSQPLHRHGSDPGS

In order of falling “hERG current change (%, negative = inhibition) at 1uM” value:
1. CCOC(=O)c1oc2ccccc2c1COC(=O)CNC(=O)c1ccccc1  22.8%
2. CCOC(=O)c1c(C)[nH]c(C)c1S(=O)(=O)NCc1ccccc1OCC  21.2%
3. COc1ccc(-c2cc3ncc(C(C)=O)c(C)n3n2)cc1  19.5%
4. O=C(CSc1nnnn1C1CCCC1)Nc1ccccc1N1CCOCC1  18.1%
5. COc1cc(C(=O)NC(=S)Nc2ccccc2N2CCCC2)cc(OC)c1OC  17.4%
6. Cc1[nH]c2ccccc2c1C(=O)C(=O)N1CCN(C)CC1  17.2%
7. COc1ccccc1C(=O)NN1C(=O)C2C3C=CC(O3)C2C1=O (stereo not drawn)  16.5%
8. CCOC(=O)c1c(NC(=O)c2ccccc2C(=O)O)sc2c1CCCC2  16.3%
9. CCOC(=O)[C@H]1[C@H]2COc3ccc(Cl)cc3[C@@H]2N2C(=O)c3ccc(C)cc3NC(=O)[C@@]12C  14.7%
10. S=C(Nc1ccccc1)Nc1ccc(Br)cc1  14.5%
11. C=CCNC(=S)Nc1ccc2nc(C)oc2c1  13.8%
12. CC[n+]1c(/C=C/c2ccc(OC)c(OC)c2)ccc2ccccc21.[I-]  13.8%
13. CCN(CC)CCOc1ccc2nc(N(C)C)sc2c1.Cl  13.7%
14. CC(=O)Nc1ccc(S(=O)(=O)N2CCCC2C(=O)Nc2ccc3c(c2)OCCO3)cc1 (stereo not drawn)  13.6%
15. CC(C)(C)c1ccc(S(=O)(=O)NNC(=O)C2CCN(Cc3cccc(F)c3)CC2)cc1  12.8%
16. Cc1cc(S(=O)(=O)Nc2cccc(Cl)c2)c(C)s1  12.1%
17. COc1ccc(C2CC(c3cccs3)=NN2C(=O)CCC(=O)O)cc1 (stereo not drawn)  12.1%
18. CC(Nc1ncnc2nc[nH]c12)c1ccccc1 (stereo not drawn)  12%
19. Cl.OCCN(CCO)CC(O)COCCC12CC3CC(CC(C3)C1)C2 (stereo not drawn)  11.7%
20. Cn1cnnc1SCC(=O)NCCC(c1ccccc1)c1ccccc1  11.6%
21. Cc1c[n+]([O-])ccc1Oc1ccc([N+](=O)[O-])cc1  10.9%
22. O=C(CN1CCCCC1)Nc1ccc(S(=O)(=O)N2CCCCCC2)cc1  10.3%
23. C/C(=N/Nc1nc(C)cc(-c2ccccc2)n1)c1ccco1  9.96%
24. COc1ccc(NC(=O)c2cc(F)cc(F)c2)cc1Cl  9.92%
25. Cc1ccc(C(=O)N2N=C(c3ccc(Br)cc3)CC2c2ccccc2O)cc1 (stereo not drawn)  9.71%
26. COc1c(C)cc(S(=O)(=O)NCc2ccccn2)c(C)c1C  9.43%
27. Clc1ccc(-c2ncc3ccccn23)c(Cl)c1  8.92%
28. COc1ccc(OCc2cccc(C(=O)N3CCCC3)c2)cc1  8.09%
29. O=C(Cc1ccccc1)NN1C(=O)C2C3C=CC(C4CC34)C2C1=O (stereo not drawn)  6.62%
30. O=C(CCSc1ccccc1)Nc1ccc(S(=O)(=O)N2CCOCC2)cc1  4.72%
31. Cn1c(O)c(C=Nc2ccc3c(c2)CCC3)c(=O)n(C)c1=O  4.24%
32. CC(C)(C)c1cc(CCC(=O)NNC(=O)c2ccncc2)cc(C(C)(C)C)c1O  4.04%
33. COCC(=O)Oc1c(Sc2ccccc2[N+](=O)[O-])c(C)nn1C(C)(C)C  3.05%
34. COc1ccc(N2CCN(C(=O)COC(=O)c3oc4ccccc4c3C)CC2)cc1  3.04%
35. COc1ccccc1Nc1nc(Cl)nc(Nc2ccccc2OC)n1  1.48%
36. O=C(Cn1nnc(-c2cccs2)n1)N1CCOCC1  1.2%
37. COc1ccccc1NCCC(=O)OCC(=O)NC1CC1  -0.487%
38. O=C(CCNC(=O)c1ccccc1Cl)Nc1nc(-c2ccc(F)cc2)cs1  -1.9%
39. CCOC(=O)Cc1nnc(NC(=O)COc2ccc(OC)cc2)s1  -4.33%
40. CC12C=CC3(O1)C(C(=O)N(c1ccccc1)C3C(=O)NC1CCCC1)C2C(N)=O (stereo not drawn)  -5.45%
41. CC(OC(=O)CCC(=O)c1ccc(Cl)s1)C(=O)NC1(C#N)CCCCC1 (stereo not drawn)  -7.9%
42. CCCc1cc(NCC2CCCO2)n2c(nc3ccccc32)c1C#N (stereo not drawn)  -8.59%
43. Cc1cn2c(-c3cccnc3)nnc2s1  -10.1%
44. CCOC(=O)C1=C(C)N=C2SC(CC)C(=O)N2C1c1cccc(F)c1 (stereo not drawn)  -18.9%
45. O=c1nc2ccccc2c2n1CC(CN1CCN(c3ccc(F)cc3)CC1)N2 (stereo not drawn)  -65.6%
